{"source": "the supplement of paper PMC3334620", "note": "In all, about 33,000 sequences were measured (“E-score (-0.5 to 0.5)”: median about -0.012, highest 2% from about 0.27 on). Some of the results follow."}
{"biological_target": "T1, Vhr1 (UniProt P40522)", "T1 sequence": "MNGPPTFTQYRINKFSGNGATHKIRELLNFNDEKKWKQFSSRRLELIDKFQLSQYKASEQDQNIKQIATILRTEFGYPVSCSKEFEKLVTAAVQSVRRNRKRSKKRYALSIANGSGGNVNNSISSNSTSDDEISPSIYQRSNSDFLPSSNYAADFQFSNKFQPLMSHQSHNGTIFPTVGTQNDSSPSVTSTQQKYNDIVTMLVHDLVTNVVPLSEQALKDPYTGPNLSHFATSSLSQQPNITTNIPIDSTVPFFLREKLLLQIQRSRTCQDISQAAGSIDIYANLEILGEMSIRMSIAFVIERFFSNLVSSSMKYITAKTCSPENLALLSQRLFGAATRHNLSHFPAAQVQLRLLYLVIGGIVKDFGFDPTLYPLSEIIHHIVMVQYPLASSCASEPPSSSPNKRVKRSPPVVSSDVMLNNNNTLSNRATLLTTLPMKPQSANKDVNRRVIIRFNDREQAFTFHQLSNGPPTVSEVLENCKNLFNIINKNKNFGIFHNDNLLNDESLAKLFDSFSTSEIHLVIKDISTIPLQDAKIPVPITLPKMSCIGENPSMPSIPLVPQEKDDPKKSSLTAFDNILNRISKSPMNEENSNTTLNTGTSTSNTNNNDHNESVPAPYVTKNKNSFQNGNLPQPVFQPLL", "experiment": "PBM E-score (8-mer binding enrichment) (E-score (-0.5 to 0.5)); higher = stronger / more preferred TF binding; most listed sequences are background and not binding sites", "details": "protein concentration: 200 nM; construct: GST-full length", "method_in_brief": "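Universal all-10-mer Agilent arrays, double-stranded by primer extension on fresh or once-stripped slides, were probed with about 100-200 nM GST-tagged yeast transcription factors made by PURExpress. Fluorescent anti-GST detected bound protein, and masliner normalised the scans. E-scores from the Universal PBM Analysis Suite were given to each ungapped eight-base word pooled with its reverse complement.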"}
{"sequence": "AGTCAAAG", "PBM E-score": 0.0566}
{"sequence": "ACGCACAA", "PBM E-score": -0.0344}
{"sequence": "AATGAAGG", "PBM E-score": -0.132}
{"sequence": "CCTAGAGC", "PBM E-score": -0.125}
{"sequence": "CACGCCTA", "PBM E-score": -0.125}
{"sequence": "CGGATTAC", "PBM E-score": -0.0575}
{"sequence": "GGCTTTCA", "PBM E-score": -0.112}
{"sequence": "GTTTCACA", "PBM E-score": -0.102}
{"sequence": "CGTTGGAG", "PBM E-score": -0.158}
{"sequence": "TCTCTACA", "PBM E-score": -0.0384}
{"sequence": "GCGGTCCC", "PBM E-score": -0.0911}
{"sequence": "CAGAGAAC", "PBM E-score": -0.126}
{"sequence": "TTAGGGAA", "PBM E-score": -0.185}
{"sequence": "AGGCACGA", "PBM E-score": -0.0194}
{"sequence": "ATGAAAGC", "PBM E-score": -0.0896}
{"sequence": "CCTCGATA", "PBM E-score": 0.127}
{"sequence": "AGTCTGGA", "PBM E-score": 0.0514}
{"sequence": "AACAAACG", "PBM E-score": -0.0504}
{"sequence": "GCTTCCTA", "PBM E-score": -0.225}
{"sequence": "CGCAACGC", "PBM E-score": -0.0215}
{"sequence": "GCGCACAC", "PBM E-score": -0.0469}
{"sequence": "CAGATTTC", "PBM E-score": -0.0565}
{"sequence": "ACAGTTTA", "PBM E-score": -0.101}
{"sequence": "CAAGTCAC", "PBM E-score": 0.284}
{"sequence": "GAGCACCC", "PBM E-score": -0.0139}
{"sequence": "GGGGATAC", "PBM E-score": -0.044}
{"sequence": "CCTGTAGC", "PBM E-score": -0.219}
{"sequence": "CTCTGGGC", "PBM E-score": -0.164}
{"sequence": "GCCTTAAC", "PBM E-score": -0.199}
{"sequence": "CTTGTGCA", "PBM E-score": 0.00015}
{"sequence": "AGAGCGTA", "PBM E-score": -0.135}
{"sequence": "TACGATGA", "PBM E-score": 0.11}
{"sequence": "ACCCTACC", "PBM E-score": 0.00399}
{"sequence": "AATGACGC", "PBM E-score": 0.00169}
{"sequence": "GACGCGCA", "PBM E-score": -0.022}
{"sequence": "ATCGAGAG", "PBM E-score": 0.00887}
{"sequence": "AGTGAGCA", "PBM E-score": -0.0161}
{"sequence": "CGACGCGC", "PBM E-score": 0.0597}
{"sequence": "CGAACCGC", "PBM E-score": 0.21}
{"sequence": "TATCATAA", "PBM E-score": 0.167}
{"sequence": "AGGGGTAA", "PBM E-score": -0.232}
{"sequence": "AACACCGG", "PBM E-score": 0.108}
{"sequence": "CGAGGCGC", "PBM E-score": 0.0696}
{"sequence": "AACCGGGG", "PBM E-score": -0.0802}
{"sequence": "CACTGTCG", "PBM E-score": -0.0238}
{"sequence": "GGCCAGCC", "PBM E-score": 0.0442}
{"sequence": "ACAAGCTC", "PBM E-score": 0.0656}
{"sequence": "CGAAGGAC", "PBM E-score": -0.232}
{"sequence": "ATTTATTA", "PBM E-score": 0.111}
{"sequence": "TTTGAAAA", "PBM E-score": -0.184}
{"sequence": "AATCAGAA", "PBM E-score": 0.223}
{"sequence": "ATCTCCAT", "PBM E-score": 0.0116}
{"sequence": "AATTTGAG", "PBM E-score": -0.154}
{"sequence": "GGACTGAC", "PBM E-score": 0.0874}
{"sequence": "ACTATTTC", "PBM E-score": -0.0701}
{"sequence": "ACCCCCCG", "PBM E-score": -0.0758}
{"sequence": "GACTAGTA", "PBM E-score": 0.263}
{"sequence": "CCACTGAC", "PBM E-score": 0.00788}
{"sequence": "CCGTTTCG", "PBM E-score": -0.151}
{"sequence": "ACAGTTCG", "PBM E-score": 0.0767}
{"sequence": "AATTCGAC", "PBM E-score": -0.323}
{"sequence": "CGCACCGA", "PBM E-score": 0.143}
{"sequence": "GATATCAC", "PBM E-score": 0.0619}
{"sequence": "CGTTGCAC", "PBM E-score": -0.0642}
{"sequence": "TGGACAAA", "PBM E-score": -0.143}
{"sequence": "CCTAGTCC", "PBM E-score": -0.0886}
{"sequence": "TCTGTACA", "PBM E-score": 0.0644}
{"sequence": "AGATCTGA", "PBM E-score": 0.107}
{"sequence": "CGATTTTC", "PBM E-score": 0.00282}
{"sequence": "ACGCGTCG", "PBM E-score": 0.0343}
{"sequence": "CGCGTGTA", "PBM E-score": 0.14}
{"sequence": "TCCTTCAA", "PBM E-score": -0.131}
{"sequence": "ACGATGTG", "PBM E-score": 0.216}
{"sequence": "TCCATCCA", "PBM E-score": 0.00064}
{"sequence": "AGCTACGA", "PBM E-score": -0.0745}
{"sequence": "CATTCTCC", "PBM E-score": -0.124}
{"sequence": "AAGGCGGG", "PBM E-score": 0.0231}
{"sequence": "CTCAGCCC", "PBM E-score": -0.0469}
{"sequence": "GTCGCTCA", "PBM E-score": -0.0251}
{"sequence": "GATCAGGA", "PBM E-score": -0.00962}
{"sequence": "GATAGATA", "PBM E-score": 0.0849}
{"sequence": "AAGATGGT", "PBM E-score": -0.049}
{"sequence": "ACAGGACT", "PBM E-score": 0.046}
{"sequence": "CGAATTGA", "PBM E-score": -0.187}
{"sequence": "GATTGCAC", "PBM E-score": 0.0661}
{"sequence": "CTCCACCC", "PBM E-score": 0.163}
